What was measured:
Test in all cases: biochemical
Type in all cases: cell-based, CHO
[1] = molecular target: T1, Muscarinic acetylcholine receptor M5 (Homo sapiens, UniProt P08912)
T1 sequence (P08912 whole entry): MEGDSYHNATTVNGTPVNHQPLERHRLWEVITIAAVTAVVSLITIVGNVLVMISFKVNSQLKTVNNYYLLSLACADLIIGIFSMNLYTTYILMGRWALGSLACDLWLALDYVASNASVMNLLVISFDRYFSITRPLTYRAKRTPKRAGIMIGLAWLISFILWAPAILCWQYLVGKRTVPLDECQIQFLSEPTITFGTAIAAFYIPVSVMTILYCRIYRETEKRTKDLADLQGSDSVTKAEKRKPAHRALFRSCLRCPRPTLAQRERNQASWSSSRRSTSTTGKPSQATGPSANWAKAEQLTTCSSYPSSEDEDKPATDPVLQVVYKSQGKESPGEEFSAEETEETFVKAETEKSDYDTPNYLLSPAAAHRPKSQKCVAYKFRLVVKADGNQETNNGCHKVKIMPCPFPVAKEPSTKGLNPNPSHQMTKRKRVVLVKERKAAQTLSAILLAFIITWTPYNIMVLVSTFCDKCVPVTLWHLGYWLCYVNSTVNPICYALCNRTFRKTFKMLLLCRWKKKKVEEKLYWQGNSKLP

[2] = molecular target: Muscarinic acetylcholine receptor M3 (Homo sapiens, UniProt P20309)
Sequence of Muscarinic acetylcholine receptor M3 (P20309 whole entry): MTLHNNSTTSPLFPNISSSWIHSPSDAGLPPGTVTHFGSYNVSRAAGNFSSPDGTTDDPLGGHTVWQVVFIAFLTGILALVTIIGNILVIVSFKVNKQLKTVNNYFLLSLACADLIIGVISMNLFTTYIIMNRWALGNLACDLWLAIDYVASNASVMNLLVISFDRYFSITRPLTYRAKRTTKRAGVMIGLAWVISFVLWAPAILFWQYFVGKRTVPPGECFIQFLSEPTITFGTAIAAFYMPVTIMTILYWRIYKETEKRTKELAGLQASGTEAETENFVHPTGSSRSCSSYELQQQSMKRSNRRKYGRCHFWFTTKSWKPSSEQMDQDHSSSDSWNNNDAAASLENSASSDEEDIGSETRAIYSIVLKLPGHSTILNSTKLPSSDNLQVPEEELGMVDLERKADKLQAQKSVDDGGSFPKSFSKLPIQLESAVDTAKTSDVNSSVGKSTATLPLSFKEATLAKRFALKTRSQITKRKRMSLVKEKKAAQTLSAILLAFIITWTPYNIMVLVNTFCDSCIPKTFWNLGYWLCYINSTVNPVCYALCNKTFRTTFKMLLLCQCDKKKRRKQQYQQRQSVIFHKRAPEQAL

[3] = molecular target: T2, Muscarinic acetylcholine receptor M2 (Homo sapiens, UniProt P08172)
T2 sequence (P08172 whole entry): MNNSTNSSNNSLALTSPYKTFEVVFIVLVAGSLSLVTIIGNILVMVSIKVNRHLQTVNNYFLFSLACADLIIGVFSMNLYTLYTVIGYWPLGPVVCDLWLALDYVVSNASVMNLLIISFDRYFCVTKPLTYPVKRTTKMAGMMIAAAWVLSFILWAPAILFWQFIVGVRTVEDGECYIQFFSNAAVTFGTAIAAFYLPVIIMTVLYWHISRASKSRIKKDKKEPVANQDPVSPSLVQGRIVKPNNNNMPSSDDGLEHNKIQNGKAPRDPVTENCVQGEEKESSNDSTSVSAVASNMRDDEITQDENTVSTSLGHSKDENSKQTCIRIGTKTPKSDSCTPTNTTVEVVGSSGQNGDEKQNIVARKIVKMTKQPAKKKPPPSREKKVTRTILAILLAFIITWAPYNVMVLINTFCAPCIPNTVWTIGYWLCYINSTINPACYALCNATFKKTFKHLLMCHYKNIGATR

[4] = molecular target: T3, Muscarinic acetylcholine receptor M4 (Homo sapiens, UniProt P08173)
T3 sequence (P08173 whole entry): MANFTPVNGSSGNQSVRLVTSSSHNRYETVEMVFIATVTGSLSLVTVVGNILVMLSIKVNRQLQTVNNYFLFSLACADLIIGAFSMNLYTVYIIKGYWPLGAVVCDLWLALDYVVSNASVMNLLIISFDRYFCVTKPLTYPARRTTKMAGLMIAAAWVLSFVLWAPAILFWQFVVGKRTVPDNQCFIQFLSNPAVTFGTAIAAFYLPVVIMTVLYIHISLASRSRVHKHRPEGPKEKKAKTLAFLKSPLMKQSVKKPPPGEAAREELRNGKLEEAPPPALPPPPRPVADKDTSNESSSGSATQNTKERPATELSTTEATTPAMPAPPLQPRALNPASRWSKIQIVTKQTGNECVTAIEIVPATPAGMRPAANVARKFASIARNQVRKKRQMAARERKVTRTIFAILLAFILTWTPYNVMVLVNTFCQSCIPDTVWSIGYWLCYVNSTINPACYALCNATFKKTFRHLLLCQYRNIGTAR

| SMILES | IC50 [1] [nM] | IC50 [2] [nM] | IC50 [3] [nM] | IC50 [4] [nM] |
| --- | --- | --- | --- | --- |
| CCN1CC[C@@H](c2ccccc2)[C@@H](C(=O)OC2CCCCC2)C1 | 1890 | 2550 | 1610 | 4250 |
| CCCOC(=O)C1=C(c2ccccc2)CCN(CC)C1 | 603 | 684 | 542 | 1410 |
| CCN1CCC(c2ccccc2)=C(C(=O)OCCC2CCCCC2)C1 | 56.2 | 115 | 238 | 135 |
| CCOC(=O)C1CN(CC)CC=C1c1ccccc1 (stereo not drawn) | 4170 | 6870 | 2760 | 10400 |
| CCN1CC=C(c2ccccc2)C(C(=O)OCCC2CCCCC2)C1 (stereo not drawn) | 159 | 530 | 1940 | 836 |
| CCCCCCCCCOC(=O)C1CN(CC)CC=C1c1ccccc1 (stereo not drawn) | 329 | 1600 | 486 | 1580 |
| CCCCCCCCCOC(=O)C1=C(c2ccccc2)CCN(CC)C1 | 85.4 | 202 | 22.2 | 282 |
| CCCCCCCOC(=O)C1CN(CC)CC=C1c1ccccc1 (stereo not drawn) | 537 | 1100 |  | 2200 |
| CCCOC(=O)C1CN(CC)CC=C1c1ccccc1 (stereo not drawn) | 1130 | 2310 | 1670 | 3790 |
| CCN1CC[C@@H](c2ccccc2)[C@H](C(=O)OCCc2ccccc2)C1 | 96.8 | 315 | 357 | 145 |
| CCN1CC[C@@H](c2ccccc2)[C@H](C(=O)OC2CCCCC2)C1 | 2970 | 4510 | 4100 | 7900 |
| CCCCOC(=O)C1=C(c2ccccc2)CCN(CC)C1 | 255 | 536 | 1870 | 524 |
| CCN1CCC(c2ccccc2)=C(C(=O)OCCCCCc2ccccc2)C1 | 472 | 448 | 121 | 951 |
| CCCCOC(=O)C1CN(CC)CC=C1c1ccccc1 (stereo not drawn) | 265 | 290 | 471 | 656 |
| CCOC(=O)C1=C(c2ccccc2)CCN(CC)C1 | 1330 | 1690 | 395 | 3230 |
| CCCCCc1noc(C2CN(CC)CC=C2c2ccccc2)n1 (stereo not drawn) | 2080 | 6710 | 10800 | 63300 |
| CCN1CC=C(c2ccccc2)C(C(=O)OCCCCCc2ccccc2)C1 (stereo not drawn) | 1570 | 2050 | 661 | 2390 |
| CCN1CC[C@@H](c2ccccc2)[C@@H](C(=O)OCCc2ccccc2)C1 | 4260 | 3180 | 4500 | 8120 |
| CCCCCCCOC(=O)C1=C(c2ccccc2)CCN(CC)C1 | 194 | 162 |  | 617 |
| CCCCCc1noc(C2=C(c3ccccc3)CCN(CC)C2)n1 | 1470 | 1930 | 1220 | 8390 |
